About 14,000 (4.5%) of roughly 310,000 compounds showed an effect of 50% or more. Effects have a minus sign here. This is one part of the list.
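Note: peak tail current of the secondary pulse compared with the same well before compound.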

In the assay the target is human ether-à-go-go-related gene (hERG) potassium channel (human, UniProt Q12809). Nature of the assay: primary screen, population patch clamp on CHO cells stably expressing hERG.
Chain of human ether-à-go-go-related gene (hERG) potassium channel (Q12809 whole entry, looked up): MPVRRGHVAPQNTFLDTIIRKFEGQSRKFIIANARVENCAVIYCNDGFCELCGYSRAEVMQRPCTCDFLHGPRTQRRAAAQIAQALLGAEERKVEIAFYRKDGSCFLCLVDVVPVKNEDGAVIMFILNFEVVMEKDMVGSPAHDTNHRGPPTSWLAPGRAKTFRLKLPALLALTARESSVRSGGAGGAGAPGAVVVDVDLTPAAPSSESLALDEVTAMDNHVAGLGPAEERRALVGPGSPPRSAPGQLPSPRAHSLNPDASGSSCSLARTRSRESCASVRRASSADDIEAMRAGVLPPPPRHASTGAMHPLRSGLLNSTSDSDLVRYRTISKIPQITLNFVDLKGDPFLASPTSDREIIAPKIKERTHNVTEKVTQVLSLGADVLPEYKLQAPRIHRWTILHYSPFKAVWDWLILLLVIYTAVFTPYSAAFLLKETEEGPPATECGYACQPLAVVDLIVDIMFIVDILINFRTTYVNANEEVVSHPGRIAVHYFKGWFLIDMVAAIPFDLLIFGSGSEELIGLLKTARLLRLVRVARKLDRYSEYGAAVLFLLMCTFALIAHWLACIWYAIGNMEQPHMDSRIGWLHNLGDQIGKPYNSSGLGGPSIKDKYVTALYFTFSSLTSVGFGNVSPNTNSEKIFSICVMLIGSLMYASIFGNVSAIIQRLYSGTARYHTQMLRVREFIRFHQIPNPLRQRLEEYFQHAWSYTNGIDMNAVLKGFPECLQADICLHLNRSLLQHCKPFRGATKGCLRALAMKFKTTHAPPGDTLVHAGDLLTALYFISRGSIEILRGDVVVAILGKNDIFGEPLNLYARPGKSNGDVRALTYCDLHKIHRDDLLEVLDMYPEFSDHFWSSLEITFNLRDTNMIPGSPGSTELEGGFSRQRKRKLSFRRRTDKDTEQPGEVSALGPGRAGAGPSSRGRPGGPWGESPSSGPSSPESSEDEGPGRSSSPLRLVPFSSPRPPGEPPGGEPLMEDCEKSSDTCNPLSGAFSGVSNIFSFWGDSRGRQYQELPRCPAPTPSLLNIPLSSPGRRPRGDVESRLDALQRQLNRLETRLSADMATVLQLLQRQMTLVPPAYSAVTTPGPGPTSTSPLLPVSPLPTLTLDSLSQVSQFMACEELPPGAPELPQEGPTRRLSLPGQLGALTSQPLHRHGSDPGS
For the compound `Cc1cc(Br)c(OCc2ccc(C(=O)N/N=C/c3ccc[nH]3)cc2)c(Br)c1`, the “hERG current change (%, negative = inhibition) at 10uM” value was 14.7%.
For `COc1ccc(Nc2nc(-c3ccccc3O)nc3ccccc23)cc1`, the “hERG current change (%, negative = inhibition) at 10uM” value was 12.5%.
With `CCn1cc(Br)c(C(=O)Nc2ccc(OC)cc2)n1` the figure was 3.21%.
In the case of `O=C(Cc1nnc(NC(=O)Nc2ccccc2)s1)Nc1ccccc1` it was 16.5%.
As to `O=C(CSc1ccc2ccccc2c1)N1CCN(c2ccc(O)cc2)CC1`, the “hERG current change (%, negative = inhibition) at 10uM” value is reported as -28.2%.
For the compound `O=C(OCC(=O)N1CCCC1)c1cc(F)c(F)cc1Cl`, the “hERG current change (%, negative = inhibition) at 10uM” value is 13%.
In the case of `CCn1c(N)c(C(=O)NCc2ccc3c(c2)OCO3)sc1=S` it was 20.6%; in that of `COc1ccc(NC(=O)C2COc3ccccc3O2)cc1` (centres unmarked), -5.43%; in that of `O=C(COc1ccc(Cl)cc1Cl)c1ccc[nH]1`, -6.79%.
`CC(C)(C)n1ncc2c(=O)n(CC(=O)Nc3ccc4c(c3)OCCO4)cnc21`: the “hERG current change (%, negative = inhibition) at 10uM” value amounted to 2%.
In the case of `CCN(CC)S(=O)(=O)c1ccc(C)c(NC(=S)N2CCN(c3ccccn3)CC2)c1` it was -48.3%.
With `CN(C)CC(O)COC(c1ccc(Cl)cc1)c1ccc(Cl)cc1` (centres unmarked) the figure was -75.8%.
In the case of `Cc1ccc(N2CCN(C(=O)N3CCOCC3)CC2)cc1C` it was 9.72%.
As to `CN(C)CCn1c(=O)n(-c2cccc(Cl)c2)c(=O)c2c3c(sc21)CCCCC3`, the “hERG current change (%, negative = inhibition) at 10uM” value is reported as -20.7%.
With `CCC(Sc1nc2ccccc2c(=O)n1CCN1CCOCC1)C(=O)NCc1cccnc1` (centres unmarked) the figure was -37%; with `O=C(O)c1ccc(-c2noc(-c3ccccc3Cl)n2)cc1`, 8.88%; with `CCCCN1C(=S)NC[C@@H]1c1ccccc1`, 11%.
In the case of `CC(C)c1ccc(/C=N/NC(=O)CN(c2cccc(Cl)c2Cl)S(C)(=O)=O)cc1` it was 16.5%; in that of `COc1cccc(C(=O)Nc2ccc3[nH]ncc3c2)c1`, -23.6%; in that of `COc1ccc(CCNC(=O)NC(C(F)(F)F)C(F)(F)F)cc1OC`, -0.421%.
As to `O=C1Cc2ccccc2C(c2ccc(Br)cc2)N1` (centres unmarked), the “hERG current change (%, negative = inhibition) at 10uM” value was -10.1%.
With `COc1ccc(C2=NN3C(C2)c2ccccc2OC3c2cccs2)cc1` (centres unmarked) the figure was 10.8%; with `Cc1ncc([N+](=O)[O-])n1CC(=O)Nc1ccc(F)cc1F`, 13.3%; with `COc1cc(C(=O)NCC(=O)N/N=C(\C)Cc2ccccc2)cc(OC)c1OC`, 15%.
With `COc1cccc(-c2nn3c(-c4ccco4)nnc3s2)c1` the figure was -32%.
In the case of `Cc1occc1C(=O)NNC(=O)Nc1ccc([N+](=O)[O-])cc1` it was -12.4%.
Take `Cc1cc(Br)ccc1NC(=O)CN1C(=O)C2CC=CCC2C1=O` (centres unmarked): the “hERG current change (%, negative = inhibition) at 10uM” value is 3.16%.
In the case of `O=C(CSCc1ccc(Cl)cc1)NN=C1CCCCCC1` it was -28.7%; in that of `CCOC(=O)c1c(S(=O)(=O)NCc2ccc(C)o2)c(C)n(C)c1C`, -22.3%.
In the case of `N/C(=N\OC(=O)CSc1ccccc1)c1ccc([N+](=O)[O-])cc1` it was -11.7%.
In the case of `CCC(C)N1C(=O)C2C(C(=O)Nc3cccc(OC)c3)C3C=CC2(O3)C1C(=O)NC1CCCCC1C` (centres unmarked) it was -6.83%; in that of `Cc1ccc(NC(=O)c2c(F)cccc2Cl)cc1S(=O)(=O)N1CCOCC1`, -7.14%; in that of `Cc1ccc(N(C(=O)c2ccc3c(c2)OCO3)C2C=CS(=O)(=O)C2)cc1C` (centres unmarked), -28.1%.
As for `Cc1coc2c(C)c3oc(=O)c(CCC(=O)N(C)CC(=O)O)c(C)c3cc12`, the “hERG current change (%, negative = inhibition) at 10uM” value is reported as 8.09%.
With `C[N+](C)(CC#N)C/C=C\c1ccccc1.[Cl-]` the figure was 4.52%; with `COc1ccc(C(=O)n2c(C)c(CCO)c(=O)n2C)cc1`, 15.4%.
In the case of `Cc1c(Cl)cccc1NC(=O)CCCN1C(=O)c2cccnc2C1=O` it was 24.8%; in that of `COCCOC(=O)c1cc(C(=O)c2cc(F)ccc2O)coc1=N`, 9.29%; in that of `CC(C)CC(NC(=O)C(CC(C)C)NC(=O)OC(C)(C)C)C(N)=O` (centres unmarked), 13.8%.
With `Cc1cc(C)cc(C(=O)NC(CC(N)=O)c2ccc(NCCN3CCOCC3)c([N+](=O)[O-])c2)c1` (centres unmarked) the figure was 12.3%.
In the case of `COc1ccc(S(=O)(=O)N(C)c2ccc(C(=O)N3CCC(C(N)=O)CC3)cc2)cc1OC`, the “hERG current change (%, negative = inhibition) at 10uM” value turned out to be 32.7%.
With `COc1ccc(C(=O)N=C2SC3CS(=O)(=O)CC3N2c2ccccc2)cc1OC` (centres unmarked) the figure was 11%; with `CSc1c(-c2ccccn2)c(N)nn1C(=O)C1CC1`, 12.9%.
Regarding `CC(C)=CCN1CCC(n2nccc2NC(=O)c2ccccc2Cl)CC1`, the “hERG current change (%, negative = inhibition) at 10uM” value was -57.9%.
With `COc1ccc(CCNS(=O)(=O)c2ccc(-n3cnnn3)c(OC)c2)cc1OC`, the “hERG current change (%, negative = inhibition) at 10uM” value turned out to be 8.35%.
With `NS(=O)(=O)c1cccc(NC(=O)CN2CCN(Cc3ccc4c(c3)OCO4)CC2)c1` the figure was -39.1%.
With `Cc1cc(C(=O)NCCCC(=O)O)c(C)o1` the figure was 0.197%; with `CC(C)CC(C(=O)O)N1C(=O)C2C3C=CC(C2C1=O)C1C(=O)N(C(CC(C)C)C(=O)O)C(=O)C31` (centres unmarked), 17.8%.
With `Cc1noc(C)c1CSCC(=O)N(C)CC(=O)Nc1cccc(F)c1` the figure was -33.1%.
For the compound `CC1CCN(S(=O)(=O)c2ccc(NC(=O)c3ccccc3F)cc2)CC1`, the “hERG current change (%, negative = inhibition) at 10uM” value is -1.47%.
In the case of `C/C(Cc1ccccc1)=N\NC(=O)CNC(=O)COc1cccc(C)c1` it was -2.8%; in that of `C=CCn1nnnc1-c1cc(Cl)cc(Cl)c1`, 5.14%; in that of `CC(OC(=O)c1cc[n+]([O-])cc1)C(=O)Nc1ccc(C(N)=O)cc1` (centres unmarked), 16%.
With `CCN(C(=O)C1CCCN(c2nc(-c3ccc(OC)cc3)no2)C1)c1ccccc1F` (centres unmarked) the figure was -3.28%; with `Cc1ccc(C(=O)Nc2cccc(C(=O)N3CCOCC3)c2)cc1Cl`, -0.452%; with `O=C(N[C@@H](Cc1ccccc1)C(=O)OCC(=O)N1CCOCC1)c1cccs1`, -9.98%.
With `CC(=O)NC1=NN(C(C)=O)C(C)(CCS(=O)(=O)c2ccc(Br)cc2)S1` (centres unmarked) the figure was 0.96%; with `N#Cc1c(SCc2c(Cl)cccc2Cl)nc(N)[nH]c1=S`, 19.6%; with `Cc1cccc(NC(=O)CSc2nc3nc(C)cc(C)n3n2)c1`, -32.6%.
For `Cc1nsc(Nc2ccc([N+](=O)[O-])cc2)c1C#N`, the “hERG current change (%, negative = inhibition) at 10uM” value turned out to be 14.8%.
In the case of `CCc1nnc(NC(=O)CSc2ccc(-c3ccc(C)cc3)nn2)s1`, the “hERG current change (%, negative = inhibition) at 10uM” value was determined as 9.49%.
In the case of `O=C1C2C(C(=O)N1CCN1CCN(Cc3ccc([N+](=O)[O-])cc3)CC1)[C@H]1C=C[C@@H]2C1` (some centres unmarked), the “hERG current change (%, negative = inhibition) at 10uM” value is reported as -28.6%.
In the case of `CN1CCN(CC2(O)CCN(S(=O)(=O)c3ccc(Cl)cc3)CC2)CC1` it was -36%.
Regarding `S=c1[nH]nc(-c2n[nH]c3c2CCC3)n1/N=C/C=C/c1ccco1`, the “hERG current change (%, negative = inhibition) at 10uM” value was 6.62%.
In the case of `Cc1cc(C)c2nc(NNC(=O)c3ccc(S(=O)(=O)N4CCc5ccccc5C4)cc3)sc2c1` it was 8.25%; in that of `Cc1ccc(C(=O)C[n+]2ccc3ccccc3c2)cc1.[Br-]`, -33.6%; in that of `CCC(=O)N=C1SC2CS(=O)(=O)CC2N1c1cccc(OC)c1` (centres unmarked), -3.11%.
Turning to `Cc1cc(C)nc(SCC(=O)OCC(=O)Nc2nc3ccccc3s2)n1`, the “hERG current change (%, negative = inhibition) at 10uM” value was determined as 16.9%.
With `COc1cc(CN2CCC(C(N)=O)CC2)ccc1OCc1ccccc1.O=C(O)C(=O)O` the figure was -39.9%; with `CC(=O)OCCn1c(=O)c2cc3c(=O)n(CCOC(C)=O)c(=O)c3cc2c1=O`, -4.39%; with `O=C(NCC(c1ccc(F)cc1)N1CCOCC1)c1nn(-c2ccccc2)c(=O)c2ccccc12` (centres unmarked), -8.35%.
With `CCOC(=O)N1CCN(C(=O)C(C)(C)Oc2ccc(Cl)cc2)CC1` the figure was -10.4%; with `O=C(O)CN1C(=O)COc2ccc(S(=O)(=O)N3CCCCCC3)cc21`, 13.7%; with `Cc1ccc(-n2nnnc2SCC#N)cc1`, -0.72%.
For the compound `CCOc1ccccc1NC(=O)N1CCCC1C(=O)Nc1ccc(NC(C)=O)cc1` (centres unmarked), the “hERG current change (%, negative = inhibition) at 10uM” value was -0.805%.
With `Cc1ccc(Cn2ncc3c(N4CCCC4)ncnc32)cc1` the figure was -41%; with `O=C(O)c1cc(C2CC2)nn1-c1ccccc1`, 17.5%.
For `O=C(N/N=C/C=C/c1ccccc1)c1cc2c(ccc3ccccc32)o1`, the “hERG current change (%, negative = inhibition) at 10uM” value was found to be 13.1%.
With `O=C(NC1CCC(O)CC1)c1cc(-c2ccc(Cl)cc2)nc2ccccc12` (centres unmarked) the figure was -10.1%; with `Cc1c(C(=O)OCc2ccc(F)cc2)sc2nc3n(c(=O)c12)CCC3`, -2.44%.
Take `CCc1ccc(CN(C)Cc2nc(Cc3ccc(OC)c(OC)c3)no2)nc1`: the “hERG current change (%, negative = inhibition) at 10uM” value is listed as -8.33%.
`COc1ccc(Nc2ncc(C(=O)O)c3ccccc23)cc1`: the “hERG current change (%, negative = inhibition) at 10uM” value turned out to be 23.3%.
As to `COC(=O)CCC(=O)Nc1nc(-c2ccccc2)cs1`, the “hERG current change (%, negative = inhibition) at 10uM” value is listed as 21.4%.
For the compound `COc1ccc(S(=O)(=O)N2CCOC2CNC(=O)C(=O)NCCCn2ccnc2)cc1OC` (centres unmarked), the “hERG current change (%, negative = inhibition) at 10uM” value was determined as 10.9%.
With `O=C(CCn1c(=S)[nH]c2ccccc2c1=O)Nc1ccc(F)cc1` the figure was 18%; with `C=C(C)c1cccc(C(C)(C)NC(=O)N2CCCC(C)C2)c1` (centres unmarked), 14.3%.
In the case of `CN(CCO)CCOCCOc1cccc2ccccc12` it was -12.5%.
With `CCOC(=O)NC(c1ccc(C(C)C)cc1)C(Cl)(Cl)Cl` (centres unmarked) the figure was 1.44%.
On to `Cc1ccc2nc(SC(C)C(=O)N3CCCCC3)[nH]c2c1` (centres unmarked), for which the “hERG current change (%, negative = inhibition) at 10uM” value is 14.7%.

The values are drawn from publication PMC4336329 (PLoS ONE, 2015).
